Experimental data reported in publication PMC12136788.
The list shows a part of the results.

T1: UNK ZnF1-6 (called full-length) (human, UniProt Q9C0B0 30-357)
T1 sequence: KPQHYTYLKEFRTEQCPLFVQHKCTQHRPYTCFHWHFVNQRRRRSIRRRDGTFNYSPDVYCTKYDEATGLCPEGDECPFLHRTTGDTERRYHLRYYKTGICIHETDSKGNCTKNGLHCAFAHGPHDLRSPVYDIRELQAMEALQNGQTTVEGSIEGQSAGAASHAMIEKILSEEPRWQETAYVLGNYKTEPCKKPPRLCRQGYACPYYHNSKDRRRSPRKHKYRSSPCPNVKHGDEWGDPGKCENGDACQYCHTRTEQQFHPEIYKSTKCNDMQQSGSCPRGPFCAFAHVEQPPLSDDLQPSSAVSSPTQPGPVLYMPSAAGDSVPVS

B1: ENSG00000198589:be:win_6301|CDS|ENSG00000198589|bound_else_gene|NA|bound_elsewhere_windowed (ssRNA)
RNA: GGGAGUUCUACAGUCCGACGAUCGAUCCUAACUUCAAAAAAAUCGACCCCAAGAUCUUGGCAUAUACAGAAGGGCUGCAUGGAAAAUGGCUGUUCACAGAGAUACGAUCAAUCUUUUCUCGUCGUUAUCUUUUGCAAAAUACACAACAGAGGAUUGAGCAUCA
B2: chr11:118657315:118658441:-|three_prime_utr|ENSG00000118094|control|control|control (ssRNA)
RNA: GGGAGUUCUACAGUCCGACGAUCCCUCCCAGCCUGUCCUCAGAGCGAAGUGGAGGGCAGGGUCACGACCUGGAGGUCAUGGGUAGGGGCCUAGCUCCCUCCUGGAACCUUGAAUAGGGUGGAAAUCCUGCUCUGGAGGGAAGACAACAGAGGAUUGAGCAUCA
B3: chr8:97725557:97725573:+|3pUTR|ENSG00000147649|msi1_unk|FALSE|overlapping (ssRNA)
RNA: GGGAGUUCUACAGUCCGACGAUCGUUGACUUUAAAAAUGAAAUCAUUCACAAACUUUUGGUAUAUGAUGGAGAAUGAAAAACUAGAGUCAGACAGCUUUAAUUGACAUUGUCAACACCUCCAGUUAUCAGGAAUACAUUUUUUCAACAGAGGAUUGAGCAUCA
B4: chr15:43456694:43456846:-|CDS|ENSG00000067369|unk|total|mutant (ssRNA)
RNA: GGGAGUUCUACAGUCCGACGAUCAGACACCAGGGAUGACAUCCGUAUUUCCGCCACUGGUUGCAAGGGCAGAGAAGAAACGGCCGCAGAAGAUGUUUGUAUUGAUCUCACUUGUGAUUCGGGGAGUCAGGCAGUUCCGUCACCCAACAGAGGAUUGAGCAUCA
B5: chr1:45741042:45741143:-|CDS|ENSG00000197429|msi1|total|mutant (ssRNA)
RNA: GGGAGUUCUACAGUCCGACGAUCUGCCAUGAUCUCUUGGAAUUCUCAGAAAACUACAUUCAUGUCCAUUUCUUGGAGGUUCACCGUGGAGAAGAGUUCCUGGCACUUACGAAAGAUCAGCUGAUCAAAAUUUUGCGAAGUGAACAACAGAGGAUUGAGCAUCA
B6: chr9:37862824:37862925:+|3pUTR|ENSG00000122741|unk|total|mutant (ssRNA)
RNA: GGGAGUUCUACAGUCCGACGAUCUAUGCACCCGCCUUGCCCUCUCCGGUUGCAUUCUCUUCCGGCCACUGGUUCUCAAACAUCCGGGUGCACUGUAACCAUUACAGAGCUUGUGAAAAGUGCAGAAACCUGAGCCUCACCUUACAACAGAGGAUUGAGCAUCA
B7: ENSG00000106080:stop:overlap|stop_codon|ENSG00000106080|stop_codon|NA|stop_codon (ssRNA)
RNA: GGGAGUUCUACAGUCCGACGAUCAUGAAGACAAAGAUGGGUUUAUAUCUGCCAGAGAAUUUACAUAUAAACACGAUGAGUUAUAGAGAUACAUCUACCCUUUUAAUAUAGCACUCAUCUUUCAAGAGAGGGCAGUCAUCUUUACAACAGAGGAUUGAGCAUCA
B8: chr20:3868059:3868160:+|3pUTR|ENSG00000088888|unk|total|mutant (ssRNA)
RNA: GGGAGUUCUACAGUCCGACGAUCUCAGCCUCCAGGGAUCUACACCCUGCCUUGGCUGCUACAGCUUUUUCACUCCACUGCCCCCGGGGAGUUCAGCAACCUAAUGAUCUCUAUCUCUGAACAUCUCUUCAUCCCAUGCUCCAACAACAGAGGAUUGAGCAUCA
B9: chr4:1716041:1716142:-|3pUTR|ENSG00000168936|msi1|total|mutant (ssRNA)
RNA: GGGAGUUCUACAGUCCGACGAUCAGGCUUCCCCGAGCGCUCAGCAGGUGAAGGCAGCAGGGGCCAUGGCCGGGAGCCAGGCCCCGCUUUGAACUGAGUUUCAAGGGCUGCCAAAGAGGGGCAGUGGGUUGGGGUUGUUUUUACCAACAGAGGAUUGAGCAUCA
B10: chr11:20048915:20049016:+|CDS|ENSG00000166833|unk|FALSE|bound_elsewhere (ssRNA)
RNA: GGGAGUUCUACAGUCCGACGAUCGAGCAGUGGGAGCAGCAGUCCUCUCUACAGCAAGAAUGUGGACCUCAACCAGUCUCCGCUAGCCUCCAGCCCCAGCUCAGCCCACUCGGCCCCUUCCAACAGCCUCACCUGGGGCACCAACAACAGAGGAUUGAGCAUCA
B11: ENSG00000214517:stop:overlap|stop_codon|ENSG00000214517|stop_codon|NA|stop_codon (ssRNA)
RNA: GGGAGUUCUACAGUCCGACGAUCUGAUCCGGCACAGGUUUGCAGAACCCAUCGGUGGAUUCCAGUGUGUGUUUCCUGGCUGUUAGUGACCUGCUGUCCACCCCUCCUCAACAUCGAGCUCUGUUGUAAAUACGUCGCACCAGACAACAGAGGAUUGAGCAUCA
B12: chr12:49796586:49796721:-|CDS|ENSG00000167566|msi1|total|mutant (ssRNA)
RNA: GGGAGUUCUACAGUCCGACGAUCGAGGCCCACAGGCCAGGCUUCGGUGCUACCUCAGAGGGCCAGGGGCCCCUCCCCUUCCUCCGCAUGUUCAUGGGUGCUGGGGAUGCCCCACUGGGCUCUCGGCCUGGCCACCCCCAUUCCCAACAGAGGAUUGAGCAUCA
B13: chr15:22866942:22867043:+|3pUTR|ENSG00000140157|msi1|FALSE|unique (ssRNA)
RNA: GGGAGUUCUACAGUCCGACGAUCUAAAGAUUUCACUAAUUUGGACCAAGAAAUUACUUUUCUUGUAUUUAAACAAACAAUGGUAGCUCACUAAAAUGACCUCAGCACAUGACGAUUUCUAUUAACAUUUUAUUGUUGUAGAAGCAACAGAGGAUUGAGCAUCA
B14: chr1:214663888:214664008:+|3pUTR|ENSG00000117724|msi1|total|mutant (ssRNA)
RNA: GGGAGUUCUACAGUCCGACGAUCAGGAGAAAACAAUUCCUCCGAAGUCUUAAAUAUAUUGUACUCUUCCGAUCUCCCAUGUGCCGGUAUUGAAAAAGUUUGGAAGCACUGAUCACCUGUCCGCAUUGCCAUUCCUCUACUGCACAACAGAGGAUUGAGCAUCA
B15: chr2:240467638:240467855:+|3pUTR|ENSG00000063660|msi1|total|mutant (ssRNA)
RNA: GGGAGUUCUACAGUCCGACGAUCGGACGGAGGUCCCCGGUUGCUGGUCAGGUCCCCAUGGCUUGUUCUCUGGAACCUGACUUCCGAUGUUUUGGGAUCAGGAGCCCCCAACACAGGCAAGUCCACCCCAUAAUAACCCUGCCACAACAGAGGAUUGAGCAUCA
B16: chr4:75812186:75812332:+|CDS|ENSG00000138768|unk|FALSE|unique (ssRNA)
RNA: GGGAGUUCUACAGUCCGACGAUCAGAGCAGCUGGAUUCAUCUAAUAGUACCAUUGCCAUUUUACAAACUGAGAAAGACAAACUAGAGUUGGAAAUUACAGAUUCUAAAAAAGAACAAGAUGAUCUCUUGGUGCUCUUGGCCGACAACAGAGGAUUGAGCAUCA
B17: chr7:92612324:92612425:-|3pUTR|ENSG00000105810|msi1|FALSE|bound_elsewhere (ssRNA)
RNA: GGGAGUUCUACAGUCCGACGAUCAUCCAACACAAGCAGUCUUGCCGUUAGGGCAUUUUGAAGCAGAUAGUAGAGUAAGAACUUAGUGACUACAGCUUAUUCUUCUGUAACAUAUGGUUUCAAACAUCUUUGCCAAAAGCUAAGCAACAGAGGAUUGAGCAUCA
B18: chr11:35619468:35619569:+|CDS|ENSG00000179431|unk|FALSE|unique (ssRNA)
RNA: GGGAGUUCUACAGUCCGACGAUCCCCCCUCCGGGAUGCCGGGGGUGAGCUGGCCAACCUCAGCCAGGCGGAGCUGGUGGACCUAGUACAAUGGACCGACUUAAUCCUUUUCGACUACCUGACGGCCAACUUCGACCGGCUCGUCAACAGAGGAUUGAGCAUCA
B19: chr9:93565116:93565217:+|3pUTR|ENSG00000048828|unk|total|mutant (ssRNA)
RNA: GGGAGUUCUACAGUCCGACGAUCAUAUACAAUACAUCAUACAUACUUUACAAGCAAGUUAAAUGGAGAUAAAGUUGAAAUCACCGAAGAUGCAAAUGACCUUUCAAAAUCAACACAAUGUGUUCUGAAACUUUCGUGACUAAUCAACAGAGGAUUGAGCAUCA
B20: chr16:58279996:58280223:-|three_prime_utr|ENSG00000103023|control|control|control (ssRNA)
RNA: GGGAGUUCUACAGUCCGACGAUCGUAAACUGAGAAUGCUGAGUGCCAGGCAUUCACCAUGCUGUUUUGAUGUCUGUUUUUGAUAGUUGCACACUGGGGCUGCCACGGAUAAGCCCAUGGCAUACACUGGGCUGGCUCUCCCUCCAACAGAGGAUUGAGCAUCA
B21: chr10:67912576:67912687:+|CDS|ENSG00000096717|unk|FALSE|unique (ssRNA)
RNA: GGGAGUUCUACAGUCCGACGAUCUUUUGAUGUAGAGCUUCUUGGAGACUGUGAUGUCAUAAUUAAUGAAUUGUGUCAUAGGUUAGGUGGUGAAUAUGCCAAACUUUGCUGUAACCCUGUAAAGCUUUCAGAAAUUACUGAAAACAACAGAGGAUUGAGCAUCA
B22: chr19:4839056:4839157:-|3pUTR|ENSG00000105355|msi1|FALSE|unique (ssRNA)
RNA: GGGAGUUCUACAGUCCGACGAUCUCUAUAAUGCAGCUGUGCUCUGGAGUCCUCAACCCGGGGCUCAUUUCAAACUUAUUUUCUAGCCACUCCUCCCAGCUCUUCUGUGCUGUCCACUUGGGAAGCUAAGGCUCUCAAAACGGGCAACAGAGGAUUGAGCAUCA

Target: T1, UNK ZnF1-6 (called full-length)
Assay: nsRBNS (natural sequence RNA bind-n-seq); RBNS binding buffer (assumed for nsRBNS): 25 mM Tris pH 7.5, 150 mM KCl, 3 mM MgCl2, 0.01% Triton X-100, 500 ug/ml BSA, 20 U/ml SUPERase-In, 4 C; UNK is unkempt and MSI1 is Musashi-1; names of the RNAs are library labels; protein concentration not given here; high values mean tight binding

| Binder | binding signal |
| --- | --- |
| B1 | 0.311 enrichment R |
| B2 | 0.564 enrichment R |
| B3 | 0.539 enrichment R |
| B4 | 0.732 enrichment R |
| B5 | 0.281 enrichment R |
| B6 | 0.527 enrichment R |
| B7 | 1.48 enrichment R |
| B8 | 0.715 enrichment R |
| B9 | 0.696 enrichment R |
| B10 | 0.892 enrichment R |
| B11 | 0.464 enrichment R |
| B12 | 0.649 enrichment R |
| B13 | 0.431 enrichment R |
| B14 | 0.417 enrichment R |
| B15 | 0.656 enrichment R |
| B16 | 0.719 enrichment R |
| B17 | 0.369 enrichment R |
| B18 | 0.618 enrichment R |
| B19 | 0.371 enrichment R |
| B20 | 0.653 enrichment R |
| B21 | 1.36 enrichment R |
| B22 | 0.963 enrichment R |
